Measurements from patent US5763404A, “Methods for using LHRH antagonists with low histamine release” (priority 1995, dated 1998).
At least one peptide structure holds a part that was inferred or is arguable (an end, a ring closure or a residue). Starred links: 1 amine or outer side, 2 acyl side, 3 side chain; linkers in the order of their positions; H or OH if unused. Non-standard residues stand in square brackets, D forms with d. Residues, ends and D or L forms follow the SMILES beside them. *: point of attachment. dAla(cis-4-NHCOPyz-cHex) = N[C@H](C[C@H]1CC[C@@H](NC(=O)c2cnccn2)CC1)C(=O)O; X3 = O=C(N[C@H]1CC[C@H](C[C@@H](N[*:1])C(=O)[*:2])CC1)c1cnccn1; dPhe(3,4-Cl2) = N[C@H](Cc1ccc(Cl)c(Cl)c1)C(=O)O; dPhe(4-Cl) = N[C@H](Cc1ccc(Cl)cc1)C(=O)O; X10 = O=C([C@@H](Cc1cnccn1)N[*:1])[*:2]; d2Nal = N[C@H](Cc1ccc2ccccc2c1)C(=O)O; Picolinoyl(6-Me) = Cc1cccc(C(=O)*)n1; Lys(iPr) = CC(C)NCCCC[C@H](N)C(=O)O; Orn(iPr) = CC(C)NCCC[C@H](N)C(=O)O; Pyrazinecarbonyl = O=C(c1cnccn1)*; aIle = CC[C@@H](C)[C@H](N)C(=O)O; d3Pal = N[C@H](Cc1cccnc1)C(=O)O; Nicotinoyl = O=C(c1cccnc1)*; Picolinoyl = O=C(c1ccccn1)*; Pip = O=C(O)[C@@H]1CCCCN1; Nle = CCCC[C@H](N)C(=O)O; dAbu = CC[C@@H](N)C(=O)O; Nva = CCC[C@H](N)C(=O)O

Test system: 4-day cycling rats
Assay: antiovulatory activity (AOA) in rats, single sc injection
Format: in vivo, rat
Settings: for AOA/μg 0.5 / AOA/μg 1.0 / AOA/μg 0.25: Table III; for AOA/μg 0.5: 0.5 μg sc; for AOA/μg 1.0: 1.0 μg sc; for AOA/μg 0.25: 0.25 μg sc

For CC(=O)N[C@H](Cc1ccc2ccccc2c1)C(=O)N[C@H](Cc1ccc(Cl)cc1)C(=O)N[C@H](Cc1cccnc1)C(=O)N[C@@H](CO)C(=O)N[C@@H](CCCCNC(=O)c1cccnc1)C(=O)N[C@H](CCCCNC(=O)c1cnccn1)C(=O)N[C@@H](CC(C)C)C(=O)N[C@@H](CCCCNC(C)C)C(=O)N1CCC[C@H]1C(=O)N[C@H](C)C(N)=O [compound 25649] (Ac-[d2Nal][dPhe(4-Cl)][d3Pal]SK(Nicotinoyl)[dK](Pyrazinecarbonyl)L[Lys(iPr)]P[dA]-NH2), the “AOA %/μg 0.5” value (0.5 μg sc in corn oil) was 78% and the “AOA %/μg 1.0” value (1.0 μg sc in corn oil) was 92%.
With CC(=O)N[C@H](Cc1ccc2ccccc2c1)C(=O)N[C@H](Cc1ccc(Cl)cc1)C(=O)N[C@H](Cc1cccnc1)C(=O)N[C@@H](CO)C(=O)N[C@@H](CCCCNC(=O)c1cccnc1)C(=O)N[C@H](C[C@H]1CC[C@H](NC(=O)c2cnccn2)CC1)C(=O)N[C@@H](CC(C)C)C(=O)N[C@@H](CCCCNC(C)C)C(=O)N1CCC[C@H]1C(=O)N[C@H](C)C(N)=O [compound 25805] (Ac-[d2Nal][dPhe(4-Cl)][d3Pal]SK(Nicotinoyl)[X3]L[Lys(iPr)]P[dA]-NH2) the “AOA/μg 0.5” value was 67 and the “AOA/μg 1.0” value was 88.
CC(=O)N[C@H](Cc1ccc2ccccc2c1)C(=O)N[C@H](Cc1ccc(Cl)cc1)C(=O)N[C@H](Cc1cccnc1)C(=O)N[C@@H](CO)C(=O)N[C@@H](CCCCNC(=O)c1cccnc1)C(=O)N[C@H](C[C@H]1CC[C@@H](NC(=O)c2cnccn2)CC1)C(=O)N[C@@H](CC(C)C)C(=O)N[C@@H](CCCCNC(C)C)C(=O)N1CCC[C@H]1C(=O)N[C@H](C)C(N)=O [compound 25806] (Ac-[d2Nal][dPhe(4-Cl)][d3Pal]SK(Nicotinoyl)[dAla(cis-4-NHCOPyz-cHex)]L[Lys(iPr)]P[dA]-NH2) was tested, and the “AOA/μg 1.0” value was 25.
CC(=O)N[C@H](Cc1ccc2ccccc2c1)C(=O)N[C@H](Cc1ccc(Cl)c(Cl)c1)C(=O)N[C@H](Cc1cccnc1)C(=O)N[C@@H](CO)C(=O)N[C@@H](CCCCNC(=O)c1ccccn1)C(=O)N[C@H](CCCCNC(=O)c1ccccn1)C(=O)N[C@@H](CC(C)C)C(=O)N[C@@H](CCCCNC(C)C)C(=O)N1CCC[C@H]1C(=O)N[C@H](C)C(N)=O [compound 25807] (Ac-[d2Nal][dPhe(3,4-Cl2)][d3Pal]SK(Picolinoyl)[dK](Picolinoyl)L[Lys(iPr)]P[dA]-NH2) was tested, and the “AOA/μg 0.5” value was 64 and the “AOA/μg 1.0” value was 90.
In the case of CC(=O)N[C@H](Cc1ccc2ccccc2c1)C(=O)N[C@H](Cc1ccc(Cl)cc1)C(=O)N[C@H](Cc1cccnc1)C(=O)N[C@@H](CO)C(=O)N[C@@H](CCCCNC(=O)c1cccc(C)n1)C(=O)N[C@H](CCCCNC(=O)c1cccc(C)n1)C(=O)N[C@@H](CC(C)C)C(=O)N[C@@H](CCCCNC(C)C)C(=O)N1CCC[C@H]1C(=O)N[C@H](C)C(N)=O [compound 25808] (Ac-[d2Nal][dPhe(4-Cl)][d3Pal]SK(Picolinoyl(6-Me))[dK](Picolinoyl(6-Me))L[Lys(iPr)]P[dA]-NH2), the “AOA/μg 0.5” value is reported as 67 and the “AOA/μg 1.0” value is reported as 91.
For CC(=O)N[C@H](Cc1ccc2ccccc2c1)C(=O)N[C@H](Cc1ccc(Cl)cc1)C(=O)N[C@H](Cc1cccnc1)C(=O)N[C@@H](CO)C(=O)N[C@@H](CCCCNC(=O)c1ccccn1)C(=O)N[C@H](CCCCNC(=O)c1ccccn1)C(=O)N[C@@H](CC(C)C)C(=O)N[C@@H](CCCNC(C)C)C(=O)N1CCC[C@H]1C(=O)N[C@H](C)C(N)=O [compound 25933] (Ac-[d2Nal][dPhe(4-Cl)][d3Pal]SK(Picolinoyl)[dK](Picolinoyl)L[Orn(iPr)]P[dA]-NH2), the “AOA %/μg 0.25” value (0.25 μg sc in corn oil) was 50%, the “AOA/μg 0.25” value was 50 and the “AOA/μg 0.5” value was 90. For the same compound, the “AOA/μg 1.0” value was 100.
CC(=O)N[C@H](Cc1ccc2ccccc2c1)C(=O)N[C@H](Cc1ccc(Cl)cc1)C(=O)N[C@H](Cc1cccnc1)C(=O)N[C@@H](CO)C(=O)N[C@@H](CCCCNC(=O)c1ccccn1)C(=O)N[C@H](CCCCNC(=O)c1ccccn1)C(=O)N[C@@H](Cc1c[nH]c2ccccc12)C(=O)N[C@@H](CCCCNC(C)C)C(=O)N1CCC[C@H]1C(=O)N[C@H](C)C(N)=O [compound 25935] (Ac-[d2Nal][dPhe(4-Cl)][d3Pal]SK(Picolinoyl)[dK](Picolinoyl)W[Lys(iPr)]P[dA]-NH2) was tested, and the “AOA/μg 0.5” value was 10.
In the case of CC[C@@H](C)[C@H](NC(=O)[C@@H](CCCCNC(=O)c1ccccn1)NC(=O)[C@H](CCCCNC(=O)c1ccccn1)NC(=O)[C@H](CO)NC(=O)[C@@H](Cc1cccnc1)NC(=O)[C@@H](Cc1ccc(Cl)cc1)NC(=O)[C@@H](Cc1ccc2ccccc2c1)NC(C)=O)C(=O)N[C@@H](CCCCNC(C)C)C(=O)N1CCC[C@H]1C(=O)N[C@H](C)C(N)=O [compound 25936] (Ac-[d2Nal][dPhe(4-Cl)][d3Pal]SK(Picolinoyl)[dK](Picolinoyl)[aIle][Lys(iPr)]P[dA]-NH2), the “AOA/μg 0.25” value is reported as 43 and the “AOA/μg 0.5” value is reported as 89.
With CC(=O)N[C@H](Cc1ccc2ccccc2c1)C(=O)N[C@H](Cc1ccc(Cl)cc1)C(=O)N[C@H](Cc1cccnc1)C(=O)N[C@@H](CO)C(=O)N[C@@H](CCCCNC(=O)c1ccccn1)C(=O)N[C@H](CCCCNC(=O)c1ccccn1)C(=O)N[C@@H](CC(C)C)C(=O)N[C@@H](CCCCNC(C)C)C(=O)N1CCCC[C@H]1C(=O)N[C@H](C)C(N)=O [compound 25937] (Ac-[d2Nal][dPhe(4-Cl)][d3Pal]SK(Picolinoyl)[dK](Picolinoyl)L[Lys(iPr)][Pip][dA]-NH2) the “AOA/μg 0.5” value was 0 and the “AOA/μg 1.0” value was 100.
With CCCC[C@H](NC(=O)[C@@H](CCCCNC(=O)c1ccccn1)NC(=O)[C@H](CCCCNC(=O)c1ccccn1)NC(=O)[C@H](CO)NC(=O)[C@@H](Cc1cccnc1)NC(=O)[C@@H](Cc1ccc(Cl)cc1)NC(=O)[C@@H](Cc1ccc2ccccc2c1)NC(C)=O)C(=O)N[C@@H](CCCCNC(C)C)C(=O)N1CCC[C@H]1C(=O)N[C@H](C)C(N)=O [compound 25988] (Ac-[d2Nal][dPhe(4-Cl)][d3Pal]SK(Picolinoyl)[dK](Picolinoyl)[Nle][Lys(iPr)]P[dA]-NH2) the “AOA/μg 0.25” value was 20 and the “AOA/μg 0.5” value was 77.
With CCC[C@H](NC(=O)[C@@H](CCCCNC(=O)c1ccccn1)NC(=O)[C@H](CCCCNC(=O)c1ccccn1)NC(=O)[C@H](CO)NC(=O)[C@@H](Cc1cccnc1)NC(=O)[C@@H](Cc1ccc(Cl)cc1)NC(=O)[C@@H](Cc1ccc2ccccc2c1)NC(C)=O)C(=O)N[C@@H](CCCCNC(C)C)C(=O)N1CCC[C@H]1C(=O)N[C@H](C)C(N)=O [compound 25989] (Ac-[d2Nal][dPhe(4-Cl)][d3Pal]SK(Picolinoyl)[dK](Picolinoyl)[Nva][Lys(iPr)]P[dA]-NH2) the “AOA/μg 0.25” value was 10 and the “AOA/μg 0.5” value was 100.
With CC(=O)N[C@H](Cc1ccc2ccccc2c1)C(=O)N[C@H](Cc1ccc(Cl)cc1)C(=O)N[C@H](Cc1cccnc1)C(=O)N[C@@H](CO)C(=O)N[C@@H](CCCCNC(=O)c1cccnc1)C(=O)N[C@H](CCCCNC(=O)c1cnccn1)C(=O)N[C@@H](CC(C)C)C(=O)N[C@@H](CCCNC(C)C)C(=O)N1CCC[C@H]1C(=O)N[C@H](C)C(N)=O [compound 25991] (Ac-[d2Nal][dPhe(4-Cl)][d3Pal]SK(Nicotinoyl)[dK](Pyrazinecarbonyl)L[Orn(iPr)]P[dA]-NH2) the “AOA/μg 0.5” value was 44.
With CC[C@@H](NC(=O)[C@@H]1CCCN1C(=O)[C@H](CCCCNC(C)C)NC(=O)[C@H](CC(C)C)NC(=O)[C@@H](CCCCNC(=O)c1ccccn1)NC(=O)[C@H](CCCCNC(=O)c1ccccn1)NC(=O)[C@H](CO)NC(=O)[C@@H](Cc1cccnc1)NC(=O)[C@@H](Cc1ccc(Cl)cc1)NC(=O)[C@@H](Cc1ccc2ccccc2c1)NC(C)=O)C(N)=O [compound 26019] (Ac-[d2Nal][dPhe(4-Cl)][d3Pal]SK(Picolinoyl)[dK](Picolinoyl)L[Lys(iPr)]P[dAbu]-NH2) the “AOA/μg 0.5” value was 78.
CC[C@H](C)[C@H](NC(=O)[C@@H](CCCCNC(=O)c1ccccn1)NC(=O)[C@H](CCCCNC(=O)c1ccccn1)NC(=O)[C@H](CO)NC(=O)[C@@H](Cc1cccnc1)NC(=O)[C@@H](Cc1ccc(Cl)cc1)NC(=O)[C@@H](Cc1ccc2ccccc2c1)NC(C)=O)C(=O)N[C@@H](CCCCNC(C)C)C(=O)N1CCC[C@H]1C(=O)N[C@H](C)C(N)=O [compound 26020] (Ac-[d2Nal][dPhe(4-Cl)][d3Pal]SK(Picolinoyl)[dK](Picolinoyl)I[Lys(iPr)]P[dA]-NH2) was tested, and the “AOA/μg 0.25” value was 0.
In the case of CC(=O)N[C@H](Cc1ccc2ccccc2c1)C(=O)N[C@H](Cc1ccc(Cl)cc1)C(=O)N[C@H](Cc1cccnc1)C(=O)N[C@@H](CO)C(=O)N[C@@H](CCCCNC(=O)c1ccccn1)C(=O)N[C@H](CCCCNC(=O)c1ccccn1)C(=O)N[C@@H](C)C(=O)N[C@@H](CCCCNC(C)C)C(=O)N1CCC[C@H]1C(=O)N[C@H](C)C(N)=O [compound 26099] (Ac-[d2Nal][dPhe(4-Cl)][d3Pal]SK(Picolinoyl)[dK](Picolinoyl)A[Lys(iPr)]P[dA]-NH2), the “AOA/μg 0.5” value is reported as 60.
With CC(=O)N[C@H](Cc1ccc(Cl)c(Cl)c1)C(=O)N[C@H](Cc1ccc(Cl)cc1)C(=O)N[C@H](Cc1cccnc1)C(=O)N[C@@H](CO)C(=O)N[C@@H](CCCCNC(=O)c1ccccn1)C(=O)N[C@H](CCCCNC(=O)c1ccccn1)C(=O)N[C@@H](CC(C)C)C(=O)N[C@@H](CCCCNC(C)C)C(=O)N1CCC[C@H]1C(=O)N[C@H](C)C(N)=O [compound 26100] (Ac-[dPhe(3,4-Cl2)][dPhe(4-Cl)][d3Pal]SK(Picolinoyl)[dK](Picolinoyl)L[Lys(iPr)]P[dA]-NH2) the “AOA/μg 0.5” value was 38.
With CC(=O)N[C@H](Cc1ccc2ccccc2c1)C(=O)N[C@H](Cc1ccc(Cl)cc1)C(=O)N[C@H](Cc1cccnc1)C(=O)N[C@@H](CO)C(=O)N[C@@H](CCCCNC(=O)c1ccccn1)C(=O)N[C@H](CCCCNC(=O)c1ccccn1)C(=O)N[C@H](C(=O)N[C@@H](CCCNC(C)C)C(=O)N1CCC[C@H]1C(=O)N[C@H](C)C(N)=O)C(C)C [compound 26118] (Ac-[d2Nal][dPhe(4-Cl)][d3Pal]SK(Picolinoyl)[dK](Picolinoyl)V[Orn(iPr)]P[dA]-NH2) the “AOA/μg 0.5” value was 57.
For CC(=O)N[C@H](Cc1ccc2ccccc2c1)C(=O)N[C@H](Cc1ccc(Cl)cc1)C(=O)N[C@H](Cc1cnccn1)C(=O)N[C@@H](CO)C(=O)N[C@@H](CCCCNC(=O)c1ccccn1)C(=O)N[C@H](CCCCNC(=O)c1ccccn1)C(=O)N[C@@H](CC(C)C)C(=O)N[C@@H](CCCNC(C)C)C(=O)N1CCC[C@H]1C(=O)N[C@H](C)C(N)=O [compound 26119] (Ac-[d2Nal][dPhe(4-Cl)][X10]SK(Picolinoyl)[dK](Picolinoyl)L[Orn(iPr)]P[dA]-NH2), the “AOA/μg 0.5” value was 75.
